The record followed here is ChEMBL document CHEMBL4888484, “Replenishing the malaria drug discovery pipeline: Screening and hit evaluation of the MMV Hit Generation Library 1 (HGL1) against asexual blood stage Plasmodium falciparum ,using a nano luciferase reporter read-out” (2022).

Among all 150,000 compounds or so, about 540 (0.36%) showed an effect of 50% or more. The list shows a part of the results.

As a reminder, the % Inhibition is the drop in the measured response relative to a control, in per cent.

In this assay the test system is Plasmodium falciparum. Briefly: Primary screen in NF54 nanoGlo assay, in single point, at 2uM, 72h; a lower Z score goes with more inhibition. The assay is classed as functional, Erythrocyte. To be noted: timepoint 72 hour.
Turning to `CCN1CCN(Cc2cccc(F)c2C(F)(F)F)C(=O)C1=O`, the “% Inhibition” value was determined as 0% and the Z score amounted to 0.06.

Regarding `C[C@](N)(CCc1ccc(O)cc1)C(=O)O`, the “% Inhibition” value is on record as -2% and the Z score is given as 0.39.

For the molecule `O=C(NCC1(c2cccs2)CCCCC1)c1ccc2c(c1)OCO2`, the “% Inhibition” value is listed as -13% and the Z score stood at 2.39.

For the molecule `Cc1cc(=O)c(C(=O)Nc2ccnc(NC(=O)OC(C)(C)C)c2)c[nH]1`, the “% Inhibition” value is -2% and the Z score was 0.38.

`CNC(=O)c1cc(Oc2ccccc2NC(=O)[C@H]2CC2(C)C)ccn1`: the “% Inhibition” value is listed as 11% and the Z score is reported as -1.55.

As for `CC(=O)N[C@H](c1nc(-c2cc(N3CCN(C)CC3)ccn2)no1)C1CCCC1`, the “% Inhibition” value is -24% and the Z score worked out at 2.85.

For the molecule `CC(C)Oc1cc(N(C)Cc2ncc[nH]2)nc(N)n1`, the “% Inhibition” value is -11% and the Z score is listed as 1.5.

For the molecule `Cc1cnn(C[C@H](C)NCC(=O)NCc2ccccn2)c1`, the “% Inhibition” value turned out to be 4% and the Z score is given as -0.77.

Turning to `O=S(=O)(c1cccnc1)N1CC[C@H](Oc2ccncc2Cl)C1`, the “% Inhibition” value is -6% and the Z score amounted to 1.14.

As for `CC(C)(C)OC1CC(NCC(=O)NCC2CC2)C1(C)C` (centres undefined), the “% Inhibition” value was -5% and the Z score is given as 0.8.

`Cc1sc2ncnc(Oc3cccc4ccccc34)c2c1C`: the “% Inhibition” value is listed as -7% and the Z score is recorded as 1.23.

For the molecule `Nc1ncccc1CN1CCC[C@H](C(=O)Cc2ccccc2)C1`, the “% Inhibition” value was -11% and the Z score is listed as 1.93.

As to `Cc1nnc(CN(C)C(=O)CO[C@H](c2ccccc2)C(F)(F)F)o1`, the “% Inhibition” value was -9% and the Z score worked out at 1.32.

Consider `Cc1cc(=O)cc(O)n1CCc1noc(Cn2ccccc2=O)n1`, for which the “% Inhibition” value is -2% and the Z score was 0.42.

Regarding `O=C(NCCN1CCOCC1)C1CCN(Cc2cccnc2)CC1`, the “% Inhibition” value was found to be 3% and the Z score is -0.48.

`CCOCCCNC(=NCCOC)NCc1cccc(OC)c1`: the “% Inhibition” value is given as 3% and the Z score is listed as -0.5.

As to `COc1cccc(Cn2c(=O)c3sccc3n(CC(=O)Nc3ccc4c(c3)OCO4)c2=O)c1`, the “% Inhibition” value turned out to be 39% and the Z score was -1.43.

In the case of `CCNS(=O)(=O)C1CCN(C(C)C(=O)N2CCc3ccccc3C2)C1` (centres undefined), the “% Inhibition” value is listed as -4% and the Z score came to 0.59.

Consider `Cc1ccc(C)c(OCCN(C)Cc2ncccc2C(=O)O)c1`, for which the “% Inhibition” value is reported as -10% and the Z score is 2.01.

In the case of `Cc1c[nH]c(CNC(=O)N(Cc2ccc(F)cc2)C2CCCCC2)n1`, the “% Inhibition” value is given as -10% and the Z score amounted to 0.97.

Take `COc1cc([C@@H]2C=C(c3ccc(Cl)cc3)Nc3ncnn32)ccc1OCc1ccc(Cl)cc1`: the “% Inhibition” value is recorded as 44% and the Z score was -5.72.

`COc1cccc(CNCc2cc3ccccc3nc2N2CCCCC2)c1`: the “% Inhibition” value was -9% and the Z score turned out to be 1.68.

Turning to `CC(C)Cc1nc(CN2C[C@@H]3C[C@H]2C(=O)N3c2cccc(Cl)c2)no1`, the “% Inhibition” value is given as -5% and the Z score was 0.69.

Regarding `C=CCN(C)c1nc(COCC)nc2c1CCN(Cc1ccoc1)CC2`, the “% Inhibition” value is on record as -1% and the Z score amounted to 0.23.

For the molecule `CC1CC(NCc2ccnc(N(C)C)n2)CN(C(=O)OC(C)(C)C)C1` (centres undefined), the “% Inhibition” value is given as -2% and the Z score worked out at 0.48.

Turning to `CC(C)n1cnnc1-c1nn(C)c2c1CN(C(=O)c1ccco1)CC2`, the “% Inhibition” value was -22% and the Z score is 3.2.

Turning to `Cc1noc(C)c1[C@H]1CC(=O)Nc2c1cnn2C1CCCC1`, the “% Inhibition” value amounted to 19% and the Z score was -2.31.

For `Cc1nn(C)c(C)c1CCCNC(=O)N1CCC(c2ccccc2)C1C` (centres undefined), the “% Inhibition” value is given as -3% and the Z score was 0.42.

Consider `COCCCNC(=O)Nc1ccn(C2CCCCC2)n1`, for which the “% Inhibition” value was -4% and the Z score is on record as 0.37.

For `Cc1ccc(-c2csc(NC(=O)c3ccsc3)n2)c(C)c1`, the “% Inhibition” value was 0% and the Z score was 0.07.

As for `COCc1cc(C(=O)NS(=O)(=O)c2cccnc2)c(C)o1`, the “% Inhibition” value is -16% and the Z score amounted to 1.32.

Take `CCN1Cc2nc(OC)c(CNC(=O)N3CCCCCCC3)cc2C1=O`: the “% Inhibition” value was 0% and the Z score was -0.06.

Take `COc1cccn2ncc(C(=O)N(C[C@H]3CCC(=O)N3)C(C)C)c12`: the “% Inhibition” value amounted to 13% and the Z score is -2.41.

On to `O=C(c1nc(-c2cccc(C(F)(F)F)c2)cs1)N1CC(F)C1`, for which the “% Inhibition” value is on record as -11% and the Z score worked out at 1.48.

In the case of `CC(C)[C@H](Cn1nccn1)NC(=O)c1ccc(C(C)(C)C)cc1`, the “% Inhibition” value is reported as -6% and the Z score stood at 0.99.

Take `COc1ccc(-c2nc(NCCN3CCOCC3)nc3nn(-c4ccc(F)cc4)c(N)c23)cc1OC`: the “% Inhibition” value was -6% and the Z score came out at 0.56.

On to `COc1cc(C#CC#CCN2CCCCC2)ccc1O`, for which the “% Inhibition” value was -4% and the Z score stood at 0.63.

Take `COCCN(C)S(=O)(=O)[C@H]1CCCN(Cc2cccc3[nH]ccc23)C1`: the “% Inhibition” value is on record as 1% and the Z score is recorded as -0.14.

In the case of `CC(=O)N(CCN1CCOCC1)[C@H]1CCN(S(=O)(=O)c2cccc(Cl)c2)C1`, the “% Inhibition” value was found to be 43% and the Z score is given as -4.85.

In the case of `COc1ccccc1N1C(=O)C2C(C1=O)C2(c1ccccc1)c1ccccc1` (centres undefined), the “% Inhibition” value amounted to 1% and the Z score is recorded as -0.07.

For the molecule `O=C(Nc1cc(F)ccc1N1CCCCC1)N[C@@H](CO)c1ccco1`, the “% Inhibition” value is recorded as -12% and the Z score was 1.25.

In the case of `O=C(C1CCCN1c1nccs1)N1CCOC2CCCCC21` (centres undefined), the “% Inhibition” value is reported as -14% and the Z score is 2.16.
